# Reference: PubChem BioAssay AID662 (National Center for Advancing Translational Sciences (NCATS), 2007)
# Out of some 71,000 compounds screened, about 1,800 (2.5%) were called active. Inconclusive results, whose numbers are uncertain, are shown with a selection of clear calls. Calls come from the whole dose curve; as a rule, active = well fitted activation curve with a large enough effect in the signal ratio, with a control signal flat (not every such curve was filed as active); inconclusive = small, poorly fitted or top-dose-only effect, or effect the other way, or a change in a side signal; inactive = flat fitted curve, though single readings scatter; the % refers to the signal ratio. Where the call is inconclusive, the potency comes from a doubtful curve fit.
# Assay: Cell signaling CRE-BLA (Fsk stim); for activity change, negative = inhibition: % of control where 0% means no effect
# Conditions: CHO CRE-bla reporter (cAMP response element driving beta-lactamase), forskolin EC10, beta-lactamase ratio; activity change, negative = inhibition: at 38.2 µM (top of the series) unless noted
# Outline: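 Modulation of forskolin-driven signalling is measured in CHO cells carrying a CRE-controlled beta-lactamase reporter. Cells are stimulated with EC10 NKH 477 in the presence of titrated compound for 3 h at 37 °C, then loaded with CCF4 for 2 h at room temperature.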
# Potency is the fitted concentration of half-maximal effect; tags give direction and shape of the fitted curve.
Structure (SMILES),"activity change, negative = inhibition",Potency
O=C(CCCn1c(=O)c2sccc2n(CC(=O)NCc2ccco2)c1=O)NCc1ccco1,inconclusive: -7.32%,–
CCCn1c2c(c(O)c(C(=O)Nc3ncccc3C)c1=O)CCCC2,inconclusive: 18.6%,–
Cc1nc2cnc(N3CCNCC3)nc2n(-c2ccccc2)c1=O,inconclusive: 25.4%,–
COc1ccc(S(=O)(=O)NCCSc2ccccc2)cc1OC,–,inactive
O=c1c2ccccc2c(/C=N/n2cnnc2)c(O)n1-c1ccccc1F,inconclusive: -29.9%,–
O=C(O)CSc1ccc([N+](=O)[O-])cc1[N+](=O)[O-],inactive: 10.7% [at 7.6 µM],–
Clc1ccc2c(c1)N(CCCN1CCCC13CCCCC3)c1ccccc1S2,inactive: -8.57% [at 7.6 µM],–
O=C(NCCc1ccco1)c1nn(Cc2ccccc2)c(=O)c2ccccc12,inconclusive: 23.2%,–
COc1ccc(NC(=O)c2ccc(N(C)S(C)(=O)=O)cc2)cc1OC,–,inactive
Cc1c(NC(=O)CSc2nc3c(cnn3-c3ccccc3)c(=O)[nH]2)c(=O)n(-c2ccccc2)n1C,–,inactive
O=C1CC(N2CCN(S(=O)(=O)c3cccc(C(F)(F)F)c3)CC2)C(=O)N1Cc1ccccc1 (centres undefined),–,inactive
COC(=O)[C@@]1(Cc2ccc(F)cc2)[C@@H]2C(=CC(=O)[C@H]2CC(=O)C(=O)N(C)C)CN1C(=O)c1ccccc1,–,inactive
COc1ccc(CC(NC(C)=O)C(=O)N2CCN(C(=O)Nc3ccc(Cl)cc3)CC2)cc1OC (centres undefined),–,inactive
CCOc1ccc(-c2nnc(NC(=O)c3ccc(OCC(C)C)c(OC)c3)o2)cc1,–,inactive
CCn1c(SCC(=O)NCCOc2ccccc2)nc2ccccc2c1=O,inconclusive: 25.6%,–
NC1(C(=O)O)C[C@H](C(=O)O)[C@H](C(=O)O)C1 (some centres undefined),–,inactive
Cc1c(O)ccc(C(=O)COc2ccccc2F)c1O,inconclusive: -15.1%,–
CCOC(=O)NC(=O)CSc1nnc(C)s1,–,inactive
Cc1cccc(C)c1OCC(=O)NCc1nnc(SCC(=O)NC2CCCCC2C)n1C (centres undefined),–,inactive
COc1ccccc1OCCC(=O)OCC(=O)Nc1ncc(Cl)cc1Cl,–,inactive
Cc1ccc(CN2C(=O)CCC2C(=O)NC2CCCC2)cc1 (centres undefined),–,"inconclusive: 20 µM [rising, single point]"
Nc1nnc(-c2ccccc2)c(-c2ccccc2)n1,–,"inconclusive: 25.1 µM [rising, single point]"
CCOc1ccc(/C(O)=C2/C(=O)C(=O)N(Cc3cccnc3)C2c2ccc(N(C)C)cc2)c(C)c1 (centres undefined),–,"inconclusive: 10 µM [rising, single point]"
CCCCOC(=O)n1c(=O)oc2ccccc21,–,inactive
CCC(O)CNc1nc(SC)nc2sc3c(c12)CCN(C)C3 (centres undefined),–,"inconclusive: 10 µM [rising, partial curve]"
CCn1cc(C(=O)OCC(=O)Nc2ccc(S(=O)(=O)N3CCCC3)cc2)c(=O)c2ccc(C)nc21,–,"inconclusive: 2 µM [rising, full curve, poor fit]"
Cc1ccc(NC(=O)CN(c2cc(C)cc(C)c2)S(=O)(=O)c2c(C)noc2C)nc1,–,inactive

Structure (SMILES),"activity change, negative = inhibition",Potency
O=[N+]([O-])c1cccc2cn[nH]c12,inconclusive: -12.6%,–
O=C(c1cc(-c2cccnc2)nc2ccc(Br)cc12)N1CCN(c2ncccn2)CC1,inconclusive: -0.286%,–
CCOC(=O)Cn1nnnc1C(CC)N(Cc1cccs1)Cc1cc2ccc(OC)cc2[nH]c1=O (centres undefined),–,"inconclusive: 20 µM [rising, single point]"
COCC(=O)Nc1nnc(CCc2ccccc2)s1,–,inactive
COc1cccc(C(=O)c2cc3ccc(O)cc3oc2=O)c1,–,"inconclusive: 10 µM [rising, single point]"
Cc1ccc(C(=O)CCNc2cccc(Br)c2)o1,–,inactive
CCOC(=O)CCS(=O)(=O)c1nc(-c2ccccc2)cc(C(F)(F)F)n1,inconclusive: -15.5%,–
Nc1nnnn1NCc1cccc(OCc2ccccc2)c1,–,"inconclusive: 25.1 µM [falling, single point]"
OCCN(Cc1ccccc1)CC1CC=CCC1 (centres undefined),inconclusive: 11.7% [at 7.6 µM],–
CC(=O)Nc1nonc1C(=O)N1CCC(C)CC1,inconclusive: 9.86%,–
COCCCN=C(c1ccco1)n1c(=S)nc(-c2ccco2)n(CCCOC)c1=S,inconclusive: -14.6%,–
COc1ccc(C2CC(=O)c3cnc(NC(=O)c4ccccc4)nc3C2)cc1OC (centres undefined),–,"inconclusive: 12.6 µM [rising, single point]"
NC(=O)CCn1nc(-c2ccc(Cl)cc2)c2ccccc2c1=O,–,"inconclusive: 15.8 µM [rising, single point]"
COc1cccc(-c2nc(=S)c3c(n2Cc2ccco2)CCCC3)c1,–,inactive
N#Cc1ccc(CN2CC3(CCN(C(=O)c4ccncc4)CC3)C2)cc1,–,inactive
CCn1c(SCC(=O)Nc2cc(NC(C)=O)ccc2OC)nnc1-c1ccncc1,–,inactive
COCc1nnc(NC(=O)C(C)C)s1,–,inactive
CC(C)Oc1ccc(CSc2nnc3n(C)c(=O)c4c5c(sc4n23)CCCC5)cc1,–,inactive
CCOc1cc(-c2noc(CCC(=O)Nc3cccnc3)n2)ccc1OC,–,"inconclusive: 15.8 µM [rising, single point]"
COc1ncc2nc(-c3ccc(F)cc3)c(=O)n(Cc3cccs3)c2n1,–,"inconclusive: 7.94 µM [rising, partial curve]"
COc1cc(C2=NOC(C(=O)N3CCCc4ccccc43)C2)cc(OC)c1OC (centres undefined),–,active: 12.6 µM
CC1=C(C(=O)OCc2ccccc2)C(c2ccc(C(F)(F)F)cc2)NC(=O)N1CCCCCC(=O)O (centres undefined),inconclusive: 28.3%,–
CCCCn1c(CN2C(=O)c3ccccc3C2=O)nc2ccccc2c1=O,–,inactive
CCC(=O)Nc1cc2c(cc1C(=O)CC)OCCO2,–,"inconclusive: 10 µM [rising, partial curve]"
Cn1c(=O)c2c(nc(N3CCNCC3)n2Cc2cccc3ccccc23)n(C)c1=O,–,inactive
CCCc1nc(NC(C)=O)c(C#N)c(-c2ccco2)c1CC,–,"inconclusive: 12.6 µM [rising, single point]"
CNc1nn(-c2cccc(Cl)c2)nc1N,–,"inconclusive: 6.31 µM [rising, partial curve]"
